Over roughly 3,600 compounds, “viability index relative to DMSO control” has its median near 0.81; the lowest 2% begin near 0.13. Some of the results follow.
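Further: 384-well serum-free SaLSSA: MitoTracker Red CMXRos staining with saponin lysis, high-content imaging, treated-well particle count divided by plate-mean count of DMSO wells.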

The assay concerns Plasmodium falciparum NF54 stage V gametocytes. As to the kind of experiment: viability index relative to DMSO control (fraction); higher = less gametocyte killing. The conditions noted are these: 1.25 µM, incubation time: 72 h.
Consider `CCCCCCOc1ccc(C(C)=NNC2=NCCN2)cc1[N+](=O)[O-]`, for which the viability index was determined as 0.525.

`Cc1ccc(-n2c(SCc3ccc(F)cc3)nnc2C(Cc2ccccc2)NC(=O)NC(C)(C)C)cc1` (stereo unspecified) came in with a viability index of 0.649.

Molecule `O=C(NN=CC1CC=CCC1)c1ccc([N+](=O)[O-])cc1Cl` (stereo unspecified) showed a viability index of 0.963.

Molecule `COCCn1c(SCC(=O)c2ccc(C)cc2C)nnc1-c1ccco1` had a viability index of 1.12.

`CCN(CC)c1ccc(C2N(Cc3ccccc3)CCN2Cc2ccccc2)c(O)c1` gave a viability index of 0.641.

The molecule `CCOC(=O)c1sc(NC(=O)CSc2nnc(CNC(=O)c3ccco3)n2-c2ccc(F)cc2)c(C(=O)OCC)c1C` displayed a viability index of 0.668.

`O=C(N1CCN(c2ccc(C(F)(F)F)cc2[N+](=O)[O-])CC1)C(Cl)(Cl)Cl` showed a viability index of 0.769.

Molecule `CCN1C(=Cc2sc3ccc(OC)cc3[n+]2CC)C=Cc2ccccc21` came in with a viability index of 0.456.

The molecule `CCCSc1nc(N)c(NC(=O)c2ccco2)c(=O)[nH]1` yielded a viability index of 0.86.

Molecule `CCCNc1nc(OC(C(F)(F)F)C(F)(F)F)nc(OC(C(F)(F)F)C(F)(F)F)n1` registered a viability index of 0.781.

Molecule `O=C(NCC1CCCO1)c1ccc([N+](=O)[O-])cc1Cl` (stereo unspecified) yielded a viability index of 1.22.

For `CC(NC(=O)Cc1ccc(F)cc1)C(c1cccs1)N1CCOCC1` (stereo unspecified), the viability index worked out at 0.935.

`CCOC(=O)c1c(C)n(-c2ccccc2)c2ccc(OC(=O)C3CC3)cc12` yielded a viability index of 0.97.

Molecule `Brc1ccc(C=Cc2cc[n+](Cc3ccccc3)cc2)cc1` came in with a viability index of 0.398.

`Cc1cccnc1NC(c1ccc([N+](=O)[O-])cc1)c1ccc2cccnc2c1O` (stereo unspecified) had a viability index of 0.88.

The molecule `Clc1ccc(NCn2nnc3ccccc32)nc1` came in with a viability index of 0.741.

For `CSc1c(C(=O)Nc2ccc(Br)cc2)ccc2c1C(=O)c1ccccc1C2=O`, the viability index was determined as 1.12.

Turning to `O=C(NC1CC1)C1CCN(c2cccc3c2C(=O)N(C2CCCCCCC2)C3=O)CC1`, the viability index turned out to be 0.815.

`O=C(NNC(=O)c1csnn1)c1ccc(Cl)cc1`: the viability index was determined as 0.673.

`CC(=O)N(C1=C(N2CCCCC2)C(=O)c2ccccc2C1=O)c1ccc(F)cc1`: the viability index was 0.721.

As to `CCOC(=O)C1=C(C)NC2=C(C(=O)C(C(=O)OCC)C(c3ccc(OC)cc3)C2)C1c1ccc(OC)c(OC)c1` (stereo unspecified), the viability index is 0.683.

On to `Cc1ccc2c(c1)N(C)C(=Cc1cccc[n+]1C)S2`, for which the viability index worked out at 1.26.

In turn, `CCOC(=O)c1nnn(-c2nonc2N)c1-c1ccc(Cl)cc1` yielded a viability index of 0.764.

`Cc1ccc2[nH]c3c(NCCN(C)C)ncnc3c2c1` displayed a viability index of 0.83.

In turn, `O=C(CCn1c(=S)oc2ccccc21)N1CCN(c2ccccc2)CC1` displayed a viability index of 1.45.

The molecule `C=Cc1cc2ccccc2c2cc3c(cc12)C[N+](C)(C)C3` gave a viability index of 1.11.

`COc1ccc(C2CC(=O)C3=C(C2)NC(C)=C(C(=O)OC2CCCCC2)C3c2cccc(C)c2)cc1OC` (stereo unspecified) returned a viability index of 0.873.

Take `Cc1ccc(-c2nn(CC(=O)Nc3ccc(OC(F)(F)F)cc3)c(=O)c3ccccc23)cc1S(=O)(=O)N1CCCCC1`: the viability index amounted to 1.1.

The molecule `Fc1cc(F)c(C2SCCN2C(=S)Nc2cccc(C(F)(F)F)c2)c(F)c1` (stereo unspecified) gave a viability index of 0.526.

The molecule `Clc1cccc(CSc2nc(Nc3ccc4c(c3)OCO4)c3ccccc3n2)c1` registered a viability index of 0.813.

Regarding `CCOc1ccc(NC(=O)c2ccc(F)c(S(=O)(=O)NC3CCCC(C)C3C)c2)cc1` (stereo unspecified), the viability index is 0.801.

As for `CN1C(=Cc2cccc[n+]2C)Sc2ccccc21`, the viability index came to 1.07.

Take `COc1ccc(-c2cc(=O)c3c(O)cc(OC4OC(COC5OC(C)C(O)C(O)C5O)C(O)C(O)C4O)cc3o2)cc1` (stereo unspecified): the viability index is 0.931.

`O=C(C=Cc1cccnc1)C12CC3CC(CC(C3)C1)C2` showed a viability index of 0.552.

In turn, `CN1CCN(Cc2c(O)ccc3c(=O)c(Oc4ccc(C(C)(C)C)cc4)c(C(F)(F)F)oc23)CC1` returned a viability index of 0.475.

Consider `Cc1n(C)c2ccccc2[n+]1CC(=O)c1ccccc1`, for which the viability index stood at 0.785.

As for `CCOC(=O)C1=C(C)NC2=C(C(=O)CC(c3ccc(OC)c(OC)c3)C2)C1c1c(F)cccc1Cl` (stereo unspecified), the viability index stood at 0.484.

As to `COc1ccccc1C(=O)ON=C(N)Cc1cccc2ccccc12`, the viability index turned out to be 0.731.

`CC(=O)Nc1ccccc1OC(F)(F)F` returned a viability index of 1.41.

`CC(C)(C)C1=NN(CC(=O)Nc2ccc3c(c2)OCO3)C(=O)c2cc3ccccc3n2C1` displayed a viability index of 0.631.

In turn, `Cc1ccc2[nH]c3c(NCCc4ccccc4F)ncnc3c2c1` showed a viability index of 0.731.

As to `CCC1=NN2C(=N)/C(=C/c3cn(CCOc4cccc(C)c4)c4ccccc34)C(=O)N=C2S1`, the viability index was 0.936.

As to `O=C(c1ccncc1)N1CCN(Cc2ccc3c(c2)OCO3)CC1`, the viability index was 1.23.

The molecule `Cc1cc(N2CCCC2)nc2ccc(NC(=S)NCCCN3CCN(Cc4ccccc4)CC3)cc12` returned a viability index of 1.06.

Turning to `Cc1cc(C)c(C(Nc2ccccn2)c2ccc3cccnc3c2O)c(C)c1` (stereo unspecified), the viability index is 0.896.

`Cc1cc(C)cc(OCC(=O)N2N=C(C(C)C)CC2(O)C(F)(F)F)c1` (stereo unspecified) came in with a viability index of 0.799.

Turning to `CCCN1CCC(N2C[C@@H](NCCC3=C(C)CCCC3(C)C)C[C@H]2C(=O)NCC)CC1`, the viability index worked out at 0.74.

The molecule `CCCN1CCc2c(sc3nc(SCC(=O)c4ccccc4)nc(N)c23)C1` displayed a viability index of 1.22.

`CCc1ccc(NC(=O)CSc2nc(C)cc(C)c2C#N)cc1` came in with a viability index of 0.993.

Molecule `O=C1CC(c2nc3ccccc3n2CCCOc2ccccc2)CN1c1ccc(F)cc1` (stereo unspecified) displayed a viability index of 0.888.

Turning to `COc1cc2c(cc1C=C(C#N)c1cccc(C)c1)OCO2`, the viability index is 0.71.

In the case of `CN(C)c1ccc(C=C2SC(=Nc3ccc(O)cc3)NC2=O)cc1`, the viability index worked out at 0.727.

For the molecule `O=c1cc[nH]c2cc(N3CCCCCC3)c(F)cc12`, the viability index was 0.755.

In turn, `OC1=C2C(=Nc3ccccc3SC2c2cccs2)c2ccccc21` (stereo unspecified) registered a viability index of 0.888.

For `CCOC(=O)C1=C(C)NC2=C(C(=O)CC(c3ccc(OC)cc3)C2)C1c1cccs1` (stereo unspecified), the viability index was 1.12.

Molecule `COc1cc(C(=O)NC2CC3CCC(C2)N3C2CC2)cc(OC)c1OC` (stereo unspecified) came in with a viability index of 0.837.

In turn, `Cc1cc(Nc2cccc(C(F)(F)F)c2)nc(N)n1` came in with a viability index of 0.804.

On to `CCCCCc1ccc(OCCOCC[n+]2ccccc2)c(CCCCC)c1`, for which the viability index is 0.713.

Molecule `CC(C)(C)c1csc(NC(=O)c2ccc(S(=O)(=O)N3CCCCC3)cc2)n1` yielded a viability index of 0.57.

Regarding `Cc1cccc(C)c1-n1c(SCc2cccc(F)c2)nc2c(sc(=S)n2-c2c(C)cccc2C)c1=O`, the viability index stood at 0.843.

Take `CC(C)CN1C(=O)c2ccccc2C(C(=O)Nc2ccc(F)c(Cl)c2)C1c1cccs1` (stereo unspecified): the viability index stood at 0.237.

As for `Nc1cc(-c2cccs2)n[nH]1`, the viability index is 1.23.

Molecule `Cc1ccccc1-c1cnnc(NCC2CCCCO2)n1` (stereo unspecified) had a viability index of 0.933.

For `CCC(CO)NCC(O)Cn1c2ccc(Cl)cc2c2cc(Cl)ccc21` (stereo unspecified), the viability index was determined as 0.322.

The molecule `O=C(COC(=O)c1c2c(nc3ccccc13)CCCCCCCCCC2)c1ccc(Cl)cc1` had a viability index of 0.933.

`CCOC(=O)C1CCN(C(c2cc3cc(OC)c(OC)cc3[nH]c2=O)c2nnnn2C(C)(C)C)CC1` (stereo unspecified) displayed a viability index of 0.778.

In turn, `Cc1cccc(C(=O)NCc2n[nH]c(=S)n2-c2cccc(C(F)(F)F)c2)c1` displayed a viability index of 0.811.

`CC(=O)N(Cc1ccc2c(c1)OCO2)C1CC(=O)N(c2ccccc2)C1=O` (stereo unspecified): the viability index came to 0.9.

Consider `CCCN(CCC)S(=O)(=O)c1cc(Br)cc2c1N(C(=O)C1CC1)CC2`, for which the viability index was 0.972.

Regarding `FC(F)(F)c1cccc(CNC2CCN(CCc3ccccc3)CC2)c1`, the viability index was found to be 1.01.

In turn, `COc1cccc(CC2(CO)CCCN(Cc3sc(N4CCCC4)nc3Cl)C2)c1` (stereo unspecified) came in with a viability index of 1.12.

Molecule `CC(=O)Nc1ccc(-c2nc3c4ccccc4c4ccc(I)cc4c3[nH]2)cc1` returned a viability index of 0.762.

For the molecule `CCOc1cc(C2CC(=O)NC3=C2C(=O)CC(c2ccc(OC)c(OC)c2)C3)ccc1O` (stereo unspecified), the viability index came out at 0.574.

For the molecule `CCOc1ccc(N(CC)S(=O)(=O)c2cc(Br)cc3c2N(C(C)=O)CC3)cc1`, the viability index turned out to be 0.69.

Molecule `OC(CNCc1ccco1)Cn1c2ccc(Cl)cc2c2cc(Cl)ccc21` (stereo unspecified) displayed a viability index of 0.698.

Turning to `O=C(NCCC1=CCCCC1)c1ccc2c(=O)n(-c3ccccc3)c(SCc3nc4ccccc4[nH]3)nc2c1`, the viability index was found to be 0.477.

In turn, `CCOC(=O)c1cc(-c2ccc(OC)cc2)n(CCC(=O)Nc2cccc(C(C)=O)c2)c1C` came in with a viability index of 0.992.

With `CCCN(C(=O)C(=O)Nc1ccc2nc3n(c(=O)c2c1)CCCCC3)c1ccc(OCC)cc1`, the viability index was 0.353.

Consider `O=C(Nc1ccc(Oc2cccc(Oc3ccc(NC(=O)c4ccc(Br)o4)cc3)c2)cc1)c1ccc(Br)o1`, for which the viability index is 0.822.

On to `O=C(NCc1ccco1)C1CCN(S(=O)(=O)c2ccc(Br)cc2)CC1`, for which the viability index was 1.03.

`COc1cc(C=C2SC(=Nc3ccccc3)NC2=O)ccc1OCc1ccccc1Cl` had a viability index of 0.777.

In turn, `CC[n+]1c(C=C2C=C(C)CC(C)C2)sc2ccccc21` (stereo unspecified) gave a viability index of 0.696.

Turning to `CCCc1ccc(OCCNC(=O)CCNC(=O)Nc2cccc(Cl)c2)cc1`, the viability index was 0.804.

`O=C(Nc1cc(Cl)cc(Cl)c1)Nc1ccccc1C(=O)NCC1CC1` showed a viability index of 0.946.

Molecule `C=CCOc1ccccc1CN1CCN(c2ccccn2)CC1` came in with a viability index of 0.771.

`CCCOC(=O)C1=C(C)NC2=C(C(=O)CC(c3ccc(OC)c(OC)c3)C2)C1c1cccc(Br)c1` (stereo unspecified) gave a viability index of 0.83.

The molecule `N#CC(=Cc1cn(Cc2ccc(Cl)cc2Cl)c2ccccc12)c1nc2ccccc2[nH]1` displayed a viability index of 0.638.

In turn, `OCC[n+]1ccc(C=Cc2c[nH]c3ccccc23)cc1` yielded a viability index of 0.741.

`O=c1c([N+](=O)[O-])cccn1Cc1ccc(F)cc1Cl` gave a viability index of 1.15.

Molecule `COc1cc(NCCCC(C)Nc2ccnc3cc4ccccc4cc23)c2ncccc2c1` (stereo unspecified) registered a viability index of 0.638.

Molecule `COc1ccc(C2C(C(=O)Nc3cc(Cl)c(OC)cc3OC)c3ccccc3C(=O)N2C)cc1` (stereo unspecified) returned a viability index of 0.273.

(Values after the supplement of paper PMC4723716.)
